Reference: article PMC12136788
Some of the results follow.

T1: UNK ZnF1-3 (human, UniProt Q9C0B0 31-174)
T1 sequence: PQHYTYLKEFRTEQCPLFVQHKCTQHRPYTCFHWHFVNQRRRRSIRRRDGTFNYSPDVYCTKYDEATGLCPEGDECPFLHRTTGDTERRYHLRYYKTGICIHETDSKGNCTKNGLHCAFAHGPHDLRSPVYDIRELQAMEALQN

B1: chr11:29607950:29607951:+_ENSMUSG00000020458_ENSMUST00000102843|mus_hu|FALSE|FALSE (ssRNA)
RNA: GGGAGUUCUACAGUCCGACGAUCAGGUGAGGAAUCUUCAACUAGCUCAGAAUGAUCAGGCACUGGCUGUUCAACUUUUGCCAUUUCUGAAUAAUCAGAGAAAUCCGGAGCUGGUUCAGCAGAAAGCUUUGUUUCUUUAAUUAACAACAGAGGAUUGAGCAUCA
B2: chr9:37441256:37441257:-_ENSG00000168795_ENST00000307750|hu_hu|motif|central (ssRNA)
RNA: GGGAGUUCUACAGUCCGACGAUCAGGCCCAGCCUCUGGACUCAACAAAUAGGGGGCCUCACUCUCCAGCCUGCAGUCACGGGUGGUGUUUGGAAUAUUAUCAUCAUUGUUCUGAUUUGCAGUAAAGUUAUUUCCUCUGCUCUUCAACAGAGGAUUGAGCAUCA
B3: 138058577_138059462_3783_3pUTR_ENSMUSG00000041642_ENSMUST00000075164|mouse|control|control (ssRNA)
RNA: GGGAGUUCUACAGUCCGACGAUCGGCCAGGGACUUGGUGAUGUUCUUGGUAGAGCUGUCCAAUGGGGGUCCUAGGCACUCCGCAGACACGGCCUUCAUCUGUGCGGAUAGCUUGGGCUCACCCUUGAACUUGAAGUCAUCGUGCAACAGAGGAUUGAGCAUCA
B4: 130808380_130808500_3123_CDS_ENSMUSG00000027312_ENSMUST00000028781|mouse|control|control (ssRNA)
RNA: GGGAGUUCUACAGUCCGACGAUCGGGCUGUGGAUACACAUUUCCUGCAGAGGCCUGUGACGGCAUCUUCACAGGUCCUUUAUAGCUGCCCUCAAUACAUUUUCCUUUCCCAGUAUUGCUAGGAUCAGUACACCAACCACAGCCCAACAGAGGAUUGAGCAUCA
B5: chr9:111179681:111179682:+_ENSMUSG00000046785_ENSMUST00000060711|mus_mus|FALSE|FALSE (ssRNA)
RNA: GGGAGUUCUACAGUCCGACGAUCGGACUUAACACUAGAGAGCUGAUUUUUGAGUACACCUAGGUUUGAAUCUUGACAUUACUACUAGUUUACUAGGGUAAAUUACAGUCUGUUUUCUUAACAACAUUCACAUAAUAUUUGAACCAACAGAGGAUUGAGCAUCA
B6: 62105671_62122614_689_CDS_ENSMUSG00000042298_ENSMUST00000050646|mouse|control|control (ssRNA)
RNA: GGGAGUUCUACAGUCCGACGAUCGGAGAAUAGCAGAUAGCGUGCACAAGAGUCUAAGCACAUACCAAGGAGGAGGUAAGUAUUGGCUGUUUCUUCUGACAUAAUAUCUUCUGCUAAUUCCUUUUCUCUUUCAAUUUUCCCCUCCAACAGAGGAUUGAGCAUCA
B7: chr7:99579578:99579579:+_ENSMUSG00000052572_ENSMUST00000098308|mus_mus|motif|central (ssRNA)
RNA: GGGAGUUCUACAGUCCGACGAUCAAAUCUCACAGAUUGCACACUGGUUCCGUAUAAAUUGUCAUUGUACUGGCCAGCUUCGGUAAAUUUGUGCUCUUGGAUAUCUUUCUCCAUUUGUUCUCUAGAAAUGACAAAGUGAUAGUCCAACAGAGGAUUGAGCAUCA
B8: chr17:7479872:7479873:+_ENSG00000161960_ENST00000293831|hu_hu|motif|central (ssRNA)
RNA: GGGAGUUCUACAGUCCGACGAUCAGCACGCACGUUGGUGCCCCCGAUACAGGCGUGACAGGAGGCGCCCAUGUAGUCUCCGGGUGCCAUGACCACCUUCUGUAUCUGCUGAGCCAAUUCUCGAGUGGGUGCUAGGACCAAGGCCAACAGAGGAUUGAGCAUCA
B9: chr7:151048522:151048523:+_ENSG00000013374_ENST00000566856|hu_mus|hu_hu_hu_mus_True|38_48 (ssRNA)
RNA: GGGAGUUCUACAGUCCGACGAUCCUGUUUCUUAUUUAUUACGAUCUUGAUGUAAUUUUCUUGAAAUCCGAAAGUUUCAGCUAUUUGGGACCUCAGUUCUCUGCCAGUGACAUGCAAGCGGGUCUCCAACAAGCUUUUCUUAUCCAACAGAGGAUUGAGCAUCA
B10: 104373753_104374693_605_3pUTR_ENSG00000139372_ENST00000392872|human|control|control (ssRNA)
RNA: GGGAGUUCUACAGUCCGACGAUCAUUAGUCCCGGGUUUAUGCCAAUAAUGACAAUGUCCAGAUUGAAGGUCAAAAUAUCGGGGAGAGUCUUGGUCAGAAGUUCAGCUUCUGAAACACCAUUAAAACGGUCUACUUUUCUUUUUCAACAGAGGAUUGAGCAUCA
B11: 10487840_10492479_495_CDS_ENSMUSG00000024743_ENSMUST00000169121|mouse|control|control (ssRNA)
RNA: GGGAGUUCUACAGUCCGACGAUCCUCCAAGGAAUUCUUGUAGCGUUUGCCCAGUUUGCGCUGACACCAGUGGCACAGGCCGCAGAGGACGAUAGUGACGCUAAGGCUGACGGUGAUGAUUGCAGAGACCAGCAGGACAUCGCGCAACAGAGGAUUGAGCAUCA
B12: chr7:149068622:149068623:-_ENSMUSG00000025139_ENSMUST00000001950|mus_hu|mus_mus_mus_hu_False|8_48 (ssRNA)
RNA: GGGAGUUCUACAGUCCGACGAUCGUGAGGCCUCUGAGUGUGGCUUGUGGUCUGUCCUGGGUUAGAGUUGUUAAUAUCACGGAACAUACCACUUAAGACGUUCCAGUCCCGCCUGACACCUUCAUUCGCAAGAGGGCAGAAAUCCAACAGAGGAUUGAGCAUCA
B13: 42223075_42223195_2112_3pUTR_ENSMUSG00000037287_ENSMUST00000125995|mouse|control|control (ssRNA)
RNA: GGGAGUUCUACAGUCCGACGAUCGGCGCAGAGGUGCUGGAGCGGUUAGAAUGCCCAGCGCAGGCUUCCAGGGGAGUAGCGAGUUUCCCAGGGCUAACACUCCGCCUACUUCUCUCUAAAACCUAACCGAGUUCCUGAGAUCAGCAACAGAGGAUUGAGCAUCA
B14: chr1:33854737:33854738:-_ENSMUSG00000042197_ENSMUST00000044455|mus_mus|FALSE|FALSE (ssRNA)
RNA: GGGAGUUCUACAGUCCGACGAUCGGUAACUUCCUCCUUUAAAAUUUAAGUGAAAAGAACUAACUAGUUUGUAUGCCCACUAAAAACCAUACAGAACCAAUCUGACCAAUUGAAUGACAUGCAUAAGAUAUACCCACAGUGACACAACAGAGGAUUGAGCAUCA
B15: 120571774_120571894_2467_3pUTR_ENSMUSG00000090100_ENSMUST00000028740|mouse|control|control (ssRNA)
RNA: GGGAGUUCUACAGUCCGACGAUCGUGUCACCAUCUCUCAUGUUGGGUAACAUGUCAUGACCAGUGUGAUCUAUCUGAAGUCCCAAAUCCACUCUGCUUCCUCCGCUAGCUAGUUCACCCUCUGUCACAACCAAGCCGGAGAAGCAACAGAGGAUUGAGCAUCA
B16: chr7:141450121:141450122:+_ENSG00000106028_ENST00000265304|hu_mus|hu_hu_hu_mus_True|18_88 (ssRNA)
RNA: GGGAGUUCUACAGUCCGACGAUCUCAUCCGUUCUAUGCCUUUUCUUUCGUCUGGUCACUCAGAAAUAUAAUGUUAUCAGCUAUGAUUGUUGUUGCUUGCCGCCUCACAUUGUUUUUAUCCAUGUAUUCGCCAUAGUCCACUUUCAACAGAGGAUUGAGCAUCA
B17: chr7:75932113:75932114:+_ENSG00000106211_ENST00000248553|hu_hu|hu_hu_hu_mus_False|8_108 (ssRNA)
RNA: GGGAGUUCUACAGUCCGACGAUCCUGCGACCACUCCUCGGGCAACCGGGGCACCCCGAAAGCUUGAUCGAAGAGGCGGCUGUGUGCAGGGUACCAGUCCCGGAAUGGUUCCCAGCUCGGGCUCCGCAGCGAGAAGGAGGGCACCAACAGAGGAUUGAGCAUCA
B18: chr11:48615247:48615248:+_ENSMUSG00000020372_ENSMUST00000020640|perfect_dup|motif|central (ssRNA)
RNA: GGGAGUUCUACAGUCCGACGAUCUCCGUCCCAGGAGCCCGAGAGGGCAAACUGACCAUCAGAGGAGAUAACAACAUCACGGACGAAGUGGGAGUGACCUCUCAGAGCACGCUGUGGUAUGCCAUAGUUGGUCUCAUCUCUGGUCAACAGAGGAUUGAGCAUCA
B19: 32646967_32647087_477_CDS_ENSG00000084652_ENST00000373610|human|control|control (ssRNA)
RNA: GGGAGUUCUACAGUCCGACGAUCCCCCUUGGAGGGUUCCUUCUCUCCAUUGACUACUGGAGUUGGUUCAGGCUCCCCAUUCCUUGCCACAUAGGUCCGGGACUUCUCUGCAUCUUCGGGUUCAGCCGGCUCACCCUGUGCCCCCAACAGAGGAUUGAGCAUCA
B20: chr2:32530670:32530671:+_ENSG00000119820_ENST00000437765|hu_hu|motif|central (ssRNA)
RNA: GGGAGUUCUACAGUCCGACGAUCCCAAUUCCUUCAGCAAGAAUUCCCAGCCUACACACAAAUUUAACACCAUCUUUUUCGGUUCAUGUAUAACUUGGAUCACACACCAGUAUAUAACGACAAAAAAUAAAUGUAUAAUAAAAACAACAGAGGAUUGAGCAUCA
B21: chr9:51871721:51871722:+_ENSMUSG00000032050_ENSMUST00000163153|mus_mus|motif|central (ssRNA)
RNA: GGGAGUUCUACAGUCCGACGAUCUGUUUUUACAACCUGGUCAAAAAGUUGUUUGCCAGUUGUAUUGGGCUGGAUGGCAAAUUCGGGCUCAGCGUCCAUUGUAGUUACUCUUACAUUGAUUGGCUUCGGCAUUUUCUUUUUCUUCAACAGAGGAUUGAGCAUCA
B22: 152482986_152483106_2665_3pUTR_ENSMUSG00000039037_ENSMUST00000044278|mouse|control|control (ssRNA)
RNA: GGGAGUUCUACAGUCCGACGAUCUGAAUAGUUCUACUUAAUGAAAGGGCAUGGGACAUUAUCACUAAUUAAAAAGAUGGGAAAGAACUGGUGGUAUGAGACACUUUAUUCACAAGUCCUGUCCUGUUUGUAGAGAAUGCCUGUCAACAGAGGAUUGAGCAUCA

Biological target: T1, UNK ZnF1-3
Assay: nsRBNS (natural sequence RNA bind-n-seq); RBNS binding buffer (assumed for nsRBNS): 25 mM Tris pH 7.5, 150 mM KCl, 3 mM MgCl2, 0.01% Triton X-100, 500 ug/ml BSA, 20 U/ml SUPERase-In, 4 C; UNK is unkempt and MSI1 is Musashi-1; names of the RNAs are library labels; protein concentration not given here; high values mean tight binding

Row | Binder | binding signal [enrichment R]
1 | B1 | 1.69
2 | B2 | 0.825
3 | B3 | 0.657
4 | B4 | 0.866
5 | B5 | 0.712
6 | B6 | 1.26
7 | B7 | 0.803
8 | B8 | 1.76
9 | B9 | 0.52
10 | B10 | 1.12
11 | B11 | 1.23
12 | B12 | 0.809
13 | B13 | 1.2
14 | B14 | 0.912
15 | B15 | 0.662
16 | B16 | 0.449
17 | B17 | 1.22
18 | B18 | 1.29
19 | B19 | 0.958
20 | B20 | 3.17
21 | B21 | 0.457
22 | B22 | 1.56
